{"sequences": {"note": "The chains behind the UniProt entries cited, without tags or fusion partners.", "UniProt Q969H0": "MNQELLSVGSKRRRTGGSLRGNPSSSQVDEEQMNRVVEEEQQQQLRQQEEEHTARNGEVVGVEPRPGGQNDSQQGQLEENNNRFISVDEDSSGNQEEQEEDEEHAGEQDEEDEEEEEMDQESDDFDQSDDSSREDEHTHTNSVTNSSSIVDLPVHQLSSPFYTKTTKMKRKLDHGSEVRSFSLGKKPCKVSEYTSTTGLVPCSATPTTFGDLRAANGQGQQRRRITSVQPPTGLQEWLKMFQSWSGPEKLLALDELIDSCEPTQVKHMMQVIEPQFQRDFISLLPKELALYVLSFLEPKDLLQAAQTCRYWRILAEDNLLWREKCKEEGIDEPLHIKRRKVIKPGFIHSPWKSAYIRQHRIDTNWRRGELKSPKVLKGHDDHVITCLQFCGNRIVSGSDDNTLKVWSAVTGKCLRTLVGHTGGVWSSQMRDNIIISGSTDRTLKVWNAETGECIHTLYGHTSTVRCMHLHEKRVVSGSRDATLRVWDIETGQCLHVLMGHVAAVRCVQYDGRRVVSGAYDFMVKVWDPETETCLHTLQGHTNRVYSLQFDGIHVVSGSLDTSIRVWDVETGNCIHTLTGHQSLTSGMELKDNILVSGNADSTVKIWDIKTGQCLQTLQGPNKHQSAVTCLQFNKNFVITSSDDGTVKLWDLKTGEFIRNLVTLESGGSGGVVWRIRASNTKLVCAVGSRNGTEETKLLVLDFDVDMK", "UniProt Q9QR71": "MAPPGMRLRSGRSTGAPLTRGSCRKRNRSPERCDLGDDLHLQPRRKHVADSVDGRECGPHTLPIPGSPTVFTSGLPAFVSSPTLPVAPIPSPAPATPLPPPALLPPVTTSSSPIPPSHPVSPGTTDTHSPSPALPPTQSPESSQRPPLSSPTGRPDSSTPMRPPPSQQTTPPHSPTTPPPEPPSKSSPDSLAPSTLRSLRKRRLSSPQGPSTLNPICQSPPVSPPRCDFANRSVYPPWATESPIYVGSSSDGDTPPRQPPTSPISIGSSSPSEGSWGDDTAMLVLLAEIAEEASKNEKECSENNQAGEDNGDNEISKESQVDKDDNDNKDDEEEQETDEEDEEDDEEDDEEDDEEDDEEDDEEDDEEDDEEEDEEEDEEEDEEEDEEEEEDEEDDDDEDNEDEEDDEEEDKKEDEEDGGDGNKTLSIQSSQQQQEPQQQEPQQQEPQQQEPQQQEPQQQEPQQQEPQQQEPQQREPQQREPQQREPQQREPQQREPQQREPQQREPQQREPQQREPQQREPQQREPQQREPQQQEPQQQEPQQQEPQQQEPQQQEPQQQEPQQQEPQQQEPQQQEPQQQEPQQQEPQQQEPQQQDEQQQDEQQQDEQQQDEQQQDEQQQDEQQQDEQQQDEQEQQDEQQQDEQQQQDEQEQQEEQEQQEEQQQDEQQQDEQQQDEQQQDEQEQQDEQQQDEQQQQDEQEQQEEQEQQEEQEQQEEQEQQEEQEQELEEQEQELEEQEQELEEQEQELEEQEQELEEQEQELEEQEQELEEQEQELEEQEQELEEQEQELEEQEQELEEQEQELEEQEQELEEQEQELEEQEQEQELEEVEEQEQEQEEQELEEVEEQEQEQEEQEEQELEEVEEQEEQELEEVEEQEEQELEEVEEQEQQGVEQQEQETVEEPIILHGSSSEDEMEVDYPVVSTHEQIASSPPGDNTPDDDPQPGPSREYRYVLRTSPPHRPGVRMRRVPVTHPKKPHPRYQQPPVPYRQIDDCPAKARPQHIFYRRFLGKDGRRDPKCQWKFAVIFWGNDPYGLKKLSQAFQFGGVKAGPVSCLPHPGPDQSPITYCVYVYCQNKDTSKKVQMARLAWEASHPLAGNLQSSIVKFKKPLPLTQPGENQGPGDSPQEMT", "UniProt Q969U6": "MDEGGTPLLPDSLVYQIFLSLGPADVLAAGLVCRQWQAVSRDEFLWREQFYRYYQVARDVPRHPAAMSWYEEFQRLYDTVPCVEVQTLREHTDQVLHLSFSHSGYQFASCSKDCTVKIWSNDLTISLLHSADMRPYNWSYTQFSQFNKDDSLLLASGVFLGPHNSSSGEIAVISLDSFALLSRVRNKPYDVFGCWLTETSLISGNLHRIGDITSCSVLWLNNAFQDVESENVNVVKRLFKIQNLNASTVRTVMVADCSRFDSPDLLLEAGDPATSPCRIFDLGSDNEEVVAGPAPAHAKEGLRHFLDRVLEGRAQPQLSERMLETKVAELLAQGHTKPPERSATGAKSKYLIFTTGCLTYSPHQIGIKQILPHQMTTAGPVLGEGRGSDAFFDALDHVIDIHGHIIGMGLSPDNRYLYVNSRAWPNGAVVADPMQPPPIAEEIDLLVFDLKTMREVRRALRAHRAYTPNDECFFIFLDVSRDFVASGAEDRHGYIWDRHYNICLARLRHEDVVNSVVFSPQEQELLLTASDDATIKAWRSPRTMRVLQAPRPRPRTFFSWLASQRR"}, "source": "paper PMC7816990", "molecules": {"B1": {"name": "FBW2, Flag-tagged (protein, UniProt Q9UKT8 1-454)", "chain": "MERKDFETWLDNISVTFLSLTDLQKNETLDHLISLSGAVQLRHLSNNLETLLKRDFLKLLPLELSFYLLKWLDPQTLLTCCLVSKQWNKVISACTEVWQTACKNLGWQIDDSVQDALHWKKVYLKAILRMKQLEDHEAFETSSLIGHSARVYALYYKDGLLCTGSDDLSAKLWDVSTGQCVYGIQTHTCAAVKFDEQKLVTGSFDNTVACWEWSSGARTQHFRGHTGAVFSVDYNDELDILVSGSADFTVKVWALSAGTCLNTLTGHTEWVTKVVLQKCKVKSLLHSPGDYILLSADKYEIKIWPIGREINCKCLKTLSVSEDRSICLQPRLHFDGKYIVCSSALGLYQWDFASYDILRVIKTPEIANLALLGFGDIFALLFDNRYLYIMDLRTESLISRWPLPEYRKSKRGSSFLAGEASWLNGLDGHNDTGLVFATSMPDHSIHLVLWKEHG"}}, "key": {"[1]": {"target": "F-box and WD repeat domain-containing 7 (FBW7), Flag-tagged (human) (UniProt Q969H0)", "assay": "co-IP; 293T cells co-transfected with Au/LANA (wild type or phosphorylation-dead mutants) and Flag/FBW7; IP anti-Flag, IB anti-Au (Fig 1B, 1D without phosphatase); antibodies of Fig 1E not named"}, "[2]": {"target": "F-box and WD repeat domain-containing 7 (FBW7), Flag-tagged (human) (UniProt Q969H0)", "assay": "condition: only cell lysates treated with λ-phosphatase; co-IP; 293T cells co-transfected with Au/LANA and Flag/FBW7; cell lysates treated with phosphatase (λ-phosphatase) before IP anti-Flag, IB anti-Au"}, "[3]": {"target": "F-box and WD repeat domain-containing 7 (FBW7), Flag-tagged (human) (UniProt Q969H0)", "assay": "co-IP; competitive protein-binding assay: 293T cells transfected with combinations of LANA-WT (rising levels), LANA-P1, MCL-1 and FBW7, treated with CHX (20 μg/ml); IP anti-Flag, IB anti-V5 or anti-GST"}, "[4]": {"target": "endogenous FBW7 (human (endogenous in BJAB and BCBL-1)) (UniProt Q969H0)", "assay": "co-IP"}, "[5]": {"target": "KSHV latency-associated nuclear antigen (LANA), V5-tagged, wild type (Kaposi's sarcoma-associated herpesvirus (KSHV)) (UniProt Q9QR71)", "assay": "co-IP; 293T cells co-transfected with LANA and Flag-tagged F-box/WD repeat constructs; IP anti-V5, IB anti-Flag"}, "[6]": {"target": "endogenous FBW7 (human (endogenous in BJAB and BCBL-1)) (UniProt Q969H0)", "assay": "co-IP; BJAB and BCBL-1 cells treated with MG132 (10 μM); IP of endogenous FBW7 with anti-FBW7, IB anti-LANA or anti-MCL-1"}}, "note": "Results are given in words; binding and its absence hold for the method and conditions named. Binding seen in cells or lysates may run through a third protein. Some results given as binding are weak or reduced against the parent protein; the word gives no strength. For some of these results: Where a sequence is shown, tags or fusion partners need not be part of it."}
{"molecule": "KSHV latency-associated nuclear antigen (LANA), Au-tagged, wild type (from UniProt Q9QR71 1-1129)", "values": [{"measurement": "binding", "setting": "[1]", "result": "binds"}, {"measurement": "binding", "setting": "[2]", "result": "no binding"}]}
{"molecule": "KSHV latency-associated nuclear antigen (LANA), V5-tagged, wild type (from UniProt Q9QR71 1-1129)", "values": [{"measurement": "binding", "setting": "[3]", "result": "binds"}]}
{"molecule": "KSHV LANA, Au-tagged, in tetracycline-inducible TREx/BJAB cells (from UniProt Q9QR71 1-1129)", "values": [{"measurement": "binding", "setting": "[4]", "result": "binds"}]}
{"molecule": "FBW5, Flag-tagged (from UniProt Q969U6 1-566)", "values": [{"measurement": "binding", "setting": "[5]", "result": "no binding"}]}
{"molecule": "endogenous KSHV LANA of BCBL-1 cells (from UniProt Q9QR71 1-1129)", "values": [{"measurement": "binding", "setting": "[6]", "result": "binds"}]}
{"molecule": "B1", "values": [{"measurement": "binding", "setting": "[5]", "result": "no binding"}]}
